Molecular target: biotinylated MSLN (human) (human, UniProt Q13421 296-580, limits assumed, biotinylated)
Test: competition ELISA, blockade of biotinylated MSLN binding to coated MUC16

UniProt Q13421, sequence (Q13421 other isoform, or with tags, fused parts or gaps limits assumed): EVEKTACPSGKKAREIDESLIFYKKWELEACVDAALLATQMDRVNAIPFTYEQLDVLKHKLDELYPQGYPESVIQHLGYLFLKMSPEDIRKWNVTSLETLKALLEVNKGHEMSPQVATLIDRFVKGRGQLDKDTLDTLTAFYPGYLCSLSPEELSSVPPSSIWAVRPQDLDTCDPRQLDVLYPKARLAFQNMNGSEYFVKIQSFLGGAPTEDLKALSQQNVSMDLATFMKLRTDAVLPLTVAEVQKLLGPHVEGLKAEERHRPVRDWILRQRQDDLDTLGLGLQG

B1: Amatuximab (antibody, V domains shown)
VH: not shown
VL: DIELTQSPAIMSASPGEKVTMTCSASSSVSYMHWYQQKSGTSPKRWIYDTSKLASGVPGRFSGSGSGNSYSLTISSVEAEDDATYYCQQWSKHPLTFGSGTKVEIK
Q: How did the IC50 turn out when B1 was run?
A: 14 pM

Reference: patent EP3915580A1 (Numab Therapeutics AG, dated 2021)
